Data: the supplement of paper PMC8728848
The list shows a part of the results.

Assays:
Test in all cases: glycan array binding signal (z-score within array); higher = stronger binding
Settings in all cases: glycan notation: IUPAC condensed, linker removed
[1] = target: Gal(b1-4)GlcNAc(b1-2)[Gal(b1-4)GlcNAc(b1-4)]Man(a1-3)[GlcNAc(b1-4)][Gal(b1-4)GlcNAc(b1-2)[Gal(b1-4)GlcNAc(b1-6)]Man(a1-6)]Man(b1-4)GlcNAc(b1-4)GlcNAc
Method in brief: (§1)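 The binding signal is a Z-score computed within each array. Data were drawn from 3228 arrays in the Consortium for Functional Glycomics database, restricted to those with a known protein sequence. Scores were averaged over arrays of the same protein sequence at different concentrations or buffers, and over linkers, and negative values can be taken as non-binding.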

[2] = target: Gal(b1-4)GlcNAc(b1-2)[Gal(b1-4)GlcNAc(b1-4)]Man(a1-3)[GlcNAc(b1-4)][Gal(b1-4)GlcNAc(b1-2)[Gal(b1-4)GlcNAc(b1-6)]Man(a1-6)]Man(b1-4)GlcNAc(b1-4)[Fuc(a1-6)]GlcNAc
Method in brief: as §1

[3] = target: Gal(b1-4)GlcNAc(b1-2)[Gal(b1-4)GlcNAc(b1-6)]Man(a1-6)[Gal(b1-4)GlcNAc(b1-2)Man(a1-3)]Man(b1-4)GlcNAc(b1-4)GlcNAc
Method in brief: as §1

[4] = target: Gal(b1-4)GlcNAc(b1-2)[Gal(b1-4)GlcNAc(b1-6)]Man(a1-6)[Gal(b1-4)GlcNAc(b1-2)Man(a1-3)]Man(b1-4)GlcNAc(b1-4)[Fuc(a1-6)]GlcNAc
Method in brief: as §1

[5] = target: Gal(b1-4)GlcNAc(b1-2)[Gal(b1-4)GlcNAc(b1-6)]Man(a1-6)[GlcNAc(b1-4)][Gal(b1-4)GlcNAc(b1-2)Man(a1-3)]Man(b1-4)GlcNAc(b1-4)GlcNAc
Method in brief: as §1

[6] = target: Gal(b1-4)GlcNAc(b1-2)[Gal(b1-4)GlcNAc(b1-6)]Man(a1-6)[GlcNAc(b1-4)][Gal(b1-4)GlcNAc(b1-2)[Gal(b1-4)GlcNAc(b1-4)]Man(a1-3)]Man(b1-4)GlcNAc(b1-4)[Fuc(a1-6)]GlcNAc
Method in brief: as §1

[7] = target: Gal(b1-4)GlcNAc(b1-3)Gal(b1-3)GalNAc
Method in brief: as §1

[8] = target: Gal(b1-4)GlcNAc(b1-3)Gal(b1-3)GlcNAc
Method in brief: as §1

[9] = target: Gal(b1-4)GlcNAc(b1-3)Gal(b1-4)Glc
Method in brief: as §1

[10] = target: Gal(b1-4)GlcNAc(b1-3)Gal(b1-4)GlcNAc
Method in brief: as §1

[11] = target: Gal(b1-4)GlcNAc(b1-3)Gal(b1-4)GlcNAc(b1-2)Man(a1-3)[Gal(b1-4)GlcNAc(b1-3)Gal(b1-4)GlcNAc(b1-2)Man(a1-6)]Man(b1-4)GlcNAc(b1-4)GlcNAc
Method in brief: as §1

[12] = target: Gal(b1-4)GlcNAc(b1-3)Gal(b1-4)GlcNAc(b1-2)Man(a1-3)[Gal(b1-4)GlcNAc(b1-3)Gal(b1-4)GlcNAc(b1-2)Man(a1-6)]Man(b1-4)GlcNAc(b1-4)[Fuc(a1-6)]GlcNAc
Method in brief: as §1

[13] = target: Gal(b1-4)GlcNAc(b1-3)Gal(b1-4)GlcNAc(b1-2)[Gal(b1-4)GlcNAc(b1-3)Gal(b1-4)GlcNAc(b1-6)]Man(a1-6)[Gal(b1-4)GlcNAc(b1-3)Gal(b1-4)GlcNAc(b1-2)Man(a1-3)]Man(b1-4)GlcNAc(b1-4)GlcNAc
Method in brief: as §1

[14] = target: Gal(b1-4)GlcNAc(b1-3)Gal(b1-4)GlcNAc(b1-2)[Gal(b1-4)GlcNAc(b1-3)Gal(b1-4)GlcNAc(b1-6)]Man(a1-6)[Gal(b1-4)GlcNAc(b1-3)Gal(b1-4)GlcNAc(b1-2)Man(a1-3)]Man(b1-4)GlcNAc(b1-4)[Fuc(a1-6)]GlcNAc
Method in brief: as §1

[15] = target: Gal(b1-4)GlcNAc(b1-3)Gal(b1-4)GlcNAc(b1-3)Gal(b1-4)GlcNAc
Method in brief: as §1

[16] = target: Gal(b1-4)GlcNAc(b1-3)Gal(b1-4)GlcNAc(b1-3)Gal(b1-4)GlcNAc(b1-2)Man(a1-3)[Gal(b1-4)GlcNAc(b1-3)Gal(b1-4)GlcNAc(b1-3)Gal(b1-4)GlcNAc(b1-2)Man(a1-6)]Man(b1-4)GlcNAc(b1-4)GlcNAc
Method in brief: as §1

[17] = target: Gal(b1-4)GlcNAc(b1-3)Gal(b1-4)GlcNAc(b1-3)Gal(b1-4)GlcNAc(b1-2)Man(a1-3)[Gal(b1-4)GlcNAc(b1-3)Gal(b1-4)GlcNAc(b1-3)Gal(b1-4)GlcNAc(b1-2)Man(a1-6)]Man(b1-4)GlcNAc(b1-4)[Fuc(a1-6)]GlcNAc
Method in brief: as §1

[18] = target: Gal(b1-4)GlcNAc(b1-3)Gal(b1-4)GlcNAc(b1-3)Gal(b1-4)GlcNAc(b1-2)[Gal(b1-4)GlcNAc(b1-3)Gal(b1-4)GlcNAc(b1-3)Gal(b1-4)GlcNAc(b1-6)]Man(a1-6)[Gal(b1-4)GlcNAc(b1-3)Gal(b1-4)GlcNAc(b1-3)Gal(b1-4)GlcNAc(b1-2)Man(a1-3)]Man(b1-4)GlcNAc(b1-4)[Fuc(a1-6)]GlcNAc
Method in brief: as §1

[19] = target: Gal(b1-4)GlcNAc(b1-3)Gal(b1-4)GlcNAc(b1-3)Gal(b1-4)GlcNAc(b1-3)Gal(b1-4)GlcNAc(b1-2)Man(a1-3)[Gal(b1-4)GlcNAc(b1-3)Gal(b1-4)GlcNAc(b1-3)Gal(b1-4)GlcNAc(b1-3)Gal(b1-4)GlcNAc(b1-2)Man(a1-6)]Man(b1-4)GlcNAc(b1-4)GlcNAc
Method in brief: as §1

[20] = target: Gal(b1-4)GlcNAc(b1-3)Gal(b1-4)GlcNAc(b1-3)Gal(b1-4)GlcNAc(b1-3)Gal(b1-4)GlcNAc(b1-2)Man(a1-3)[Gal(b1-4)GlcNAc(b1-3)Gal(b1-4)GlcNAc(b1-3)Gal(b1-4)GlcNAc(b1-3)Gal(b1-4)GlcNAc(b1-2)Man(a1-6)]Man(b1-4)GlcNAc(b1-4)[Fuc(a1-6)]GlcNAc
Method in brief: as §1

[21] = target: Gal(b1-4)GlcNAc(b1-3)Gal(b1-4)GlcNAc(b1-3)Gal(b1-4)GlcNAc(b1-3)Gal(b1-4)GlcNAc(b1-2)[Gal(b1-4)GlcNAc(b1-3)Gal(b1-4)GlcNAc(b1-3)Gal(b1-4)GlcNAc(b1-3)Gal(b1-4)GlcNAc(b1-6)]Man(a1-6)[Gal(b1-4)GlcNAc(b1-3)Gal(b1-4)GlcNAc(b1-3)Gal(b1-4)GlcNAc(b1-3)Gal(b1-4)GlcNAc(b1-2)Man(a1-3)]Man(b1-4)GlcNAc(b1-4)[Fuc(a1-6)]GlcNAc
Method in brief: as §1

[22] = target: Gal(b1-4)GlcNAc(b1-3)Gal(b1-4)GlcNAc(b1-3)Gal(b1-4)GlcNAc(b1-3)Gal(b1-4)GlcNAc(b1-3)Gal(b1-4)GlcNAc(b1-2)Man(a1-3)[Gal(b1-4)GlcNAc(b1-3)Gal(b1-4)GlcNAc(b1-3)Gal(b1-4)GlcNAc(b1-3)Gal(b1-4)GlcNAc(b1-3)Gal(b1-4)GlcNAc(b1-2)Man(a1-6)]Man(b1-4)GlcNAc(b1-4)GlcNAc
Method in brief: as §1

[23] = target: Gal(b1-4)GlcNAc(b1-3)Gal(b1-4)GlcNAc(b1-3)Gal(b1-4)GlcNAc(b1-3)Gal(b1-4)GlcNAc(b1-3)Gal(b1-4)GlcNAc(b1-2)Man(a1-3)[Gal(b1-4)GlcNAc(b1-3)Gal(b1-4)GlcNAc(b1-3)Gal(b1-4)GlcNAc(b1-3)Gal(b1-4)GlcNAc(b1-3)Gal(b1-4)GlcNAc(b1-2)Man(a1-6)]Man(b1-4)GlcNAc(b1-4)[Fuc(a1-6)]GlcNAc
Method in brief: as §1

B1: Gal 7 (Homo sapiens) (protein)
chain: MSNVPHKSSLPEGIRPGTVLRIRGLVPPNASRFHVNLLCGEEGGSDAALHFNPRLDTSEVVFNSKEGGSWGREERGPGVPFGRGQPFEVLIIASDDGFKAVVGDAQYHHFRHRLPLARVRLVEVGGDVQLDSVRIF
- glycan array binding signal (z-score) [1]: 0.026
- glycan array binding signal (z-score) [2]: -0.127
- glycan array binding signal (z-score) [3]: 0.052
- glycan array binding signal (z-score) [4]: 0.141
- glycan array binding signal (z-score) [5]: -0.186
- glycan array binding signal (z-score) [6]: -0.258
- glycan array binding signal (z-score) [7]: -0.259
- glycan array binding signal (z-score) [8]: -0.06
- glycan array binding signal (z-score) [9]: 0.958
- glycan array binding signal (z-score) [10]: 0.739
- glycan array binding signal (z-score) [11]: 2.23
- glycan array binding signal (z-score) [12]: 3.36
- glycan array binding signal (z-score) [13]: -0.215
- glycan array binding signal (z-score) [14]: 4.27
- glycan array binding signal (z-score) [15]: 0.945
- glycan array binding signal (z-score) [16]: 3.58
- glycan array binding signal (z-score) [17]: 4.99
- glycan array binding signal (z-score) [18]: 4.93
- glycan array binding signal (z-score) [19]: 4.71
- glycan array binding signal (z-score) [20]: 4.78
- glycan array binding signal (z-score) [21]: 5.2
- glycan array binding signal (z-score) [22]: 4.95
- glycan array binding signal (z-score) [23]: 4.93
